Test results: PubChem BioAssay AID2675 (National Center for Advancing Translational Sciences (NCATS), 2010)
Hit rate of the full screen: of about 280,000 compounds, about 100 (0.036%) were called active. This list was built around the results that the source calls inconclusive (neither active nor inactive); the mix of calls is not that of the screen. The call rests on the fitted dose curve; in most records, active means well fitted inhibition curve with a large enough effect in the signal ratio, with a control signal flat (not every such curve was filed as active); inconclusive means small, poorly fitted or top-dose-only effect, or effect the other way, or a change in a side signal; inactive means no such curve, though single readings can be large or run the other way; the % refers to the signal ratio. A potency beside an inconclusive call is a rough fit, not a confirmed value. “Side channel” marks fits to a control or component signal instead of the main read-out.

The molecules below were run against Muscleblind-like protein 1 (Homo sapiens) (UniProt Q9NR56) (assay: qHTS Assay for Inhibitors of MBNL1-poly(CUG) RNA binding). Conditions: TR-FRET MBNL1-His/biotin-(CUG)12 binding, 665/545 ratio; activity change, negative = inhibition: at 57.5 µM (top of the series).
Chain of UniProt Q9NR56 (Q9NR56 whole entry, looked up): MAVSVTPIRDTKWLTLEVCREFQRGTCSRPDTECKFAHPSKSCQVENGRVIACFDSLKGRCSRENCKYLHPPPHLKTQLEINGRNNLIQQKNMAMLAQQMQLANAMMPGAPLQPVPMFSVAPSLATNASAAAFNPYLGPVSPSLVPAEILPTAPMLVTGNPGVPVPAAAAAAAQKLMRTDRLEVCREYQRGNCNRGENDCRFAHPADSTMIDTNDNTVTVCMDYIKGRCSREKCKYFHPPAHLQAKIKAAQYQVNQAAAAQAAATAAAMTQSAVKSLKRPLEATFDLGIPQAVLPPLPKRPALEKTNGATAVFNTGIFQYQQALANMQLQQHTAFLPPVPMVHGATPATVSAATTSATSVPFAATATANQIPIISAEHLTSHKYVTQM
In short: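 TR-FRET readout: Ex 340 nm, 665/545 nm emission ratio, normalized to buffer-only (basal) and MBNL1-(CUG)12 controls. Complex of MBNL1-His with Biotin-(CUG)12, compounds 92 nM–58 uM, incubated 60 min at room temperature.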
On the % scale 0 is the no-effect control and ±100 the full control effect; potency means the concentration at half of the fitted maximal effect; tags describe the fitted curve by direction and shape or compound fluorescence and quenching.

Row | SMILES | activity change, negative = inhibition | Potency
1 | COc1cccc(CNC(=O)C2CCN(S(=O)(=O)c3ccc(C)cc3)CC2)c1 | inactive: 1.75% | 
2 | CCOC(=O)N1CCN(C(=O)CCn2c(=S)[nH]c3ccsc3c2=O)CC1 | inactive: 2.5% | 
3 | Cc1nc2ccccc2c(=O)n1NC(=O)COc1ccccc1 |  | inconclusive: 8.91 µM [quencher, side channel, single point]
4 | Cc1ccc(/C=N/n2nnnc2N)o1 |  | inconclusive: 35.5 µM [quencher, side channel, single point]
5 | O=C(NCC1CCCO1)c1ccc(NC(=O)c2cccc([N+](=O)[O-])c2)cc1 (stereo unspecified) |  | inconclusive: 8.91 µM [quencher, side channel, partial curve]
6 | COc1ccc2[nH]c3c(=O)n(CCCCC(=O)NCCN4CCCC4)c(=S)[nH]c3c2c1 |  | inconclusive: 14.1 µM [quencher, side channel, partial curve]
7 | CNC(=O)COC(=O)c1ccc(Cl)c(S(=O)(=O)N2CCCC2)c1 | inactive: 6.74% | 
8 | COc1ccc(S(=O)(=O)NC(C)C(=O)NCc2ccncc2)cc1Cl (stereo unspecified) |  | inconclusive: 0.355 µM [quencher, side channel, full curve]
9 | Cc1nc2c(o1)CCc1ccccc1C2N1CCN(C)CC1 (stereo unspecified) |  | inactive
10 | O=c1oc2ccccc2c(NCCO)c1[N+](=O)[O-] |  | inconclusive: 25.1 µM [quencher, side channel, partial curve]
11 | CCc1ccc(/C(C)=N/NC(=O)c2ccccn2)cc1 | inactive: -5.6% | 
12 | CCn1cc(C(=O)O)c(=O)c2cc(F)c(N3CCN(C(=S)NC(=O)c4cc(OC)cc(OC)c4)CC3)cc21 | inactive: 67.9% | 
13 | COc1ccc(CSc2nnc(Cc3sc(-c4ccccc4)nc3-c3ccccc3)o2)cc1 | inactive: 363% | 
14 | Cc1cc(C(=O)NC2CCCC2)c2ccccc2n1 |  | inconclusive: 0.708 µM [fluorescent, side channel, single point]
15 | CC(C)(C)c1nc(SCC(=O)c2ccccc2)c2ccccc2n1 | inactive: 1.07% | 
16 | CCCCNC(=O)c1cc2c(=O)n3cccc(C)c3nc2s1 |  | inconclusive: 3.55 µM [quencher, full curve]
17 | Cc1ccc(OC(=O)c2ccc(N3CCOCC3)c([N+](=O)[O-])c2)cc1 |  | inconclusive: 20 µM [quencher, side channel, partial curve]
18 | COC(=O)C(Cc1cnc(Cl)s1)(C(=O)OC)c1ccc([N+](=O)[O-])cc1[N+](=O)[O-] |  | inconclusive: 15.8 µM [quencher, partial curve]
19 | O=C(c1coc(=O)c(Br)c1)N1CCCc2ccccc21 |  | inconclusive: 11.2 µM [quencher, side channel, partial curve]
20 | O=C(N/N=C/c1ccccc1Cl)c1nc2ccc([N+](=O)[O-])cc2c(=O)[nH]1 | inactive: 7.18% | 
21 | O=C1NC(=O)/C(=C\c2ccc(Cl)nc2)S1 | inactive: 1.49% | 
22 | NC(=O)CC(NC(=O)Cc1ccc(Br)cc1)c1ccc(N2CCC(N3CCCCC3)CC2)c([N+](=O)[O-])c1 (stereo unspecified) |  | inconclusive: 20 µM [quencher, side channel, partial curve]

Row | SMILES | activity change, negative = inhibition | Potency
23 | CC(C#N)(Nc1ccc(Cl)cc1)c1cccnc1 (stereo unspecified) |  | inconclusive: 0.316 µM [quencher, side channel, partial curve]
24 | CC(C)c1nc(-c2ccc([N+](=O)[O-])cc2)cs1 |  | inconclusive: 10 µM [quencher, side channel, partial curve]
25 | O=C(Nc1ccc(OC(F)F)cc1)c1ccccn1 | inactive: 1.05% | 
26 | CN1C(=O)C(=O)/C(=C(/O)c2ccc(Br)cc2)C1c1ccccc1F (stereo unspecified) | inactive: -3.71% | 
27 | c1cncc(-c2nnc3n2N=C(c2cccs2)CS3)c1 |  | inconclusive: 14.1 µM [quencher, side channel, partial curve]
28 | CN(C)c1ccc(/C=N/NC(=O)C(=O)N2CCCCCC2)cc1 |  | inconclusive: 31.6 µM [quencher, side channel, single point]
29 | c1cnc2c(c1)ncc1cscc12 |  | inconclusive: 39.8 µM [quencher, side channel, single point]
30 | CC(C)(C)NC(=O)c1nc2nc(-c3ccccc3)cc(C(F)(F)F)n2n1 |  | inconclusive: 10 µM [quencher, side channel, partial curve]
31 | C/C(=N\NC(=O)C(C)Nc1cccc(Cl)c1)c1ccc([N+](=O)[O-])cc1 (stereo unspecified) |  | inconclusive: 3.16 µM [quencher, side channel, partial curve]
32 | Cc1cc(N/N=C/c2ccc(O)cc2)nc(NS(=O)(=O)c2ccccc2)n1 | inactive: -18.8% | 
33 | Cc1cccc(N(CC(N)=O)C2SC(=O)N(c3ccccc3)C2=O)c1 (stereo unspecified) |  | inconclusive: 31.6 µM [quencher, side channel, single point]
34 | COc1ccc2cc(C(=O)COC(=O)COc3ccc4c(C)cc(=O)oc4c3)ccc2c1 |  | inconclusive: 1 µM [fluorescent, side channel, full curve, poor fit]
35 | CC(C)C(=O)NNC(=O)c1csc(-c2cccs2)n1 |  | inconclusive: 31.6 µM [quencher, single point]
36 | COc1ccccc1C(=O)N=Nc1c(O)[nH]c2ccc([N+](=O)[O-])cc12 | inactive: 22.4% | 
37 | Cc1cc(C(=O)CN2CCCCC2)c(C)n1-c1ccc(F)cc1 | inactive: -16% | 
38 | O=C(Nc1ccc(OC(F)(F)C(F)F)c(NC(=O)c2cccc(F)c2)c1)c1cccc(F)c1 |  | inconclusive: 8.91 µM [quencher, side channel, single point]
39 | COc1cccc(NC(=O)c2ccc3c(c2)C(=O)N(CC2CCCO2)C3=O)c1 (stereo unspecified) |  | inconclusive: 10 µM [quencher, side channel, partial curve]
40 | COC(=O)c1c(NC(=O)Cc2cccs2)sc2c1CCCC2 |  | inconclusive: 7.08 µM [quencher, side channel, single point]
41 | CCOC(=O)/C(=N\Nc1ncnc2ccccc12)c1ccc(C)cc1 |  | inconclusive: 25.1 µM [quencher, side channel, partial curve]
42 | C=CCNC(=S)N/N=C/c1ccc(C)s1 |  | inconclusive: 28.2 µM [quencher, side channel, single point]
43 | Cc1nnc(NC(=O)CSc2nnc(CC(=O)Nc3ccccc3C)n2C)s1 | inactive: -1.25% | 
44 | Nc1nc2ccccc2cc1-c1cccs1 |  | inconclusive: 22.4 µM [quencher, side channel, partial curve]

Row | SMILES | activity change, negative = inhibition | Potency
45 | NNC(=O)c1sc(-c2ccc(Cl)cc2)cc1N |  | inconclusive: 10 µM [quencher, side channel, partial curve]
46 | COc1cc(/C=N/Nc2nc(C)nc3c2cnn3-c2ccccc2)ccc1O | inactive: -9.63% | 
47 | CC1CCCCC1Nc1ncnc2sccc12 (stereo unspecified) | inactive: -4.76% | 
48 | COc1ccccc1N(CC(=O)NC(C)(C)C)S(=O)(=O)c1cccs1 | inactive: -3.9% | 
49 | COCC(=O)Nc1ncc(S(=O)(=O)c2ccc([N+](=O)[O-])cc2)s1 |  | inconclusive: 6.31 µM [quencher, side channel, partial curve]
50 | CCn1c(SCC(=O)c2ccc3c(c2)Cc2ccccc2-3)nnc1-c1ccc(N)cc1 |  | inconclusive: 0.398 µM [quencher, side channel, full curve]
51 | O=C(Oc1cc(Cl)ccc1Cl)c1ccc(N2CCOCC2)c([N+](=O)[O-])c1 |  | inconclusive: 0.708 µM [quencher, side channel, full curve, poor fit]
52 | COc1ccc([N+](=O)[O-])cc1NC(=O)C(C)N1CCCC1 (stereo unspecified) |  | inconclusive: 31.6 µM [quencher, side channel, single point]
53 | Cc1ccc(CNn2cnnc2SCc2ccc(F)cc2)cc1 |  | inconclusive: 10 µM [quencher, side channel, partial curve]
54 | Cc1nc2ncnn2c(N2CCCC(C(=O)Nc3ccc4c(c3)CCC4)C2)c1C (stereo unspecified) | inactive: -8.31% | 
55 | CCOC(=O)c1cnc2ccccc2c1Nc1cccc(C(=O)O)c1 | inactive: 14.5% | 
56 | COC(=O)C1C/C(=N/NS(=O)(=O)c2ccc(C)cc2)CS1 (stereo unspecified) | inactive: -6.67% | 
57 | Cc1ccc(/C=N/NC(=O)c2n[nH]c3c2CCCC3)cc1 | inactive: 1.68% | 
58 | c1ccc(C2=Nc3ccccc3NC(c3ccccc3)C2)cc1 (stereo unspecified) |  | inconclusive: 39.8 µM [quencher, side channel, single point]
59 | Cn1c(=O)cc(OCCCC(=O)Nc2ccc3c(c2)OCCO3)c2ccccc21 |  | inconclusive: 1.12 µM [fluorescent, side channel, full curve, poor fit]
60 | O=[N+]([O-])c1ccc2c(c1N1CCCCC1)=NC1(CCCCC1)[N+]=2[O-] |  | inconclusive: 12.6 µM [quencher, side channel, partial curve]
61 | N#CC1=C(N)SC(N)=C(C#N)C1c1ccnc2ccccc12 |  | inconclusive: 25.1 µM [quencher, side channel, partial curve]
62 | COc1ccc(C)cc1NC(=O)CNC(=O)Cn1ccc2ccccc2c1=O |  | inconclusive: 20 µM [fluorescent, side channel, partial curve, poor fit]
63 | CCCC1OC2CC3C4CCC5=CC(=O)C=CC5(C)C4C(O)CC3(C)C2(C(=O)O)O1 (stereo unspecified) | inactive: -2.11% | 
64 | O=[N+]([O-])c1ccc(C[n+]2cc(-c3ccc(Cl)c(Cl)c3)n3c2CCCCC3)cc1 |  | inconclusive: 11.2 µM [quencher, side channel, partial curve]
65 | CCOC(=O)C1CCN(C2=C(NS(=O)(=O)c3ccc(Br)cc3)C(=O)c3ccccc3C2=O)CC1 |  | inconclusive: 14.1 µM [quencher, side channel, partial curve]
66 | CCC(C)(C)C(=O)Nc1ncc(S(=O)(=O)c2ccc([N+](=O)[O-])cc2)s1 |  | inconclusive: 10 µM [quencher, side channel, partial curve]
